# Test results published in publication PMC4336329 (PLoS ONE, 2015).
# Screen size: about 310,000 compounds; about 2,200 (0.71%) showed an effect of 50% or more. Effects have a minus sign here. The list shows a part of the results.
# Target: human ether-à-go-go-related gene (hERG) potassium channel (human, UniProt Q12809)
# Assay: primary screen, population patch clamp on CHO cells stably expressing hERG
# human ether-à-go-go-related gene (hERG) potassium channel, sequence (Q12809 whole entry, looked up): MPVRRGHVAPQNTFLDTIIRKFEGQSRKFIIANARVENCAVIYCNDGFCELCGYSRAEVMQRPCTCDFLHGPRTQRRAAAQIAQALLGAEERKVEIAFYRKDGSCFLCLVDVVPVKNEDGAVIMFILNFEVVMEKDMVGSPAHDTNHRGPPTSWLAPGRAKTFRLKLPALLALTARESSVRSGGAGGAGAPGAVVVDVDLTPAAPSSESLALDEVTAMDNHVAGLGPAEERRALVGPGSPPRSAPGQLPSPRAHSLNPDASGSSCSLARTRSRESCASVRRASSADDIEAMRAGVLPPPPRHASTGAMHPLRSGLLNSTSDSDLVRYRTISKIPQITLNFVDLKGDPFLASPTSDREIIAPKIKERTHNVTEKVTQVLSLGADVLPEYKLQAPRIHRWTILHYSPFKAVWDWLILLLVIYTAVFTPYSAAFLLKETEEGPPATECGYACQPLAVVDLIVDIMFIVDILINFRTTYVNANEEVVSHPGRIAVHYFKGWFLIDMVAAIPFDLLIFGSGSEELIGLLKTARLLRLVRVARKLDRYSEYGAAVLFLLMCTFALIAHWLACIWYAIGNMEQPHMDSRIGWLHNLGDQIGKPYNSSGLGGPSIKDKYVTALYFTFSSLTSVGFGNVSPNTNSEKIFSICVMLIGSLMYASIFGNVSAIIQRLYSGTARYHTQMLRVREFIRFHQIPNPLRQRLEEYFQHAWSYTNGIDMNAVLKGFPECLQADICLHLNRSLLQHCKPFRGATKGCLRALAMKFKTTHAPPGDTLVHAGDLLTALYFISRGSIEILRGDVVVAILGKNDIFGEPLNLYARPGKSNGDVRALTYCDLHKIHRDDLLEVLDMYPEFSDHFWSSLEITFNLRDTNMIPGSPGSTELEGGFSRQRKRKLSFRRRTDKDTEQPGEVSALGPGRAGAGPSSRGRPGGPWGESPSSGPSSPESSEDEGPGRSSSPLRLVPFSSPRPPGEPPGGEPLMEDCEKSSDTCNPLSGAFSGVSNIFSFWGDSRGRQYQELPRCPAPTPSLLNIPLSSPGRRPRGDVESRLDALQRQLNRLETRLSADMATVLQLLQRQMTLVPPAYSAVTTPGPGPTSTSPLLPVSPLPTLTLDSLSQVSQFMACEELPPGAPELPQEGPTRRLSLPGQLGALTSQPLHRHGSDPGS
row,SMILES,"hERG current change (%, negative = inhibition) at 1uM [%]"
1,COc1ccc(NCc2nnc(SCC(=O)Nc3nc(-c4ccccc4)cs3)n2-c2ccccc2)cc1,9.48
2,OC(COc1ccc(CN2CCSCC2)cc1)CN1CCCCC1 (stereo not drawn),11
3,NS(=O)(=O)c1ccc(CCn2c(=S)[nH]c3ccccc3c2=O)cc1,0.0031
4,CCOC(=O)c1c(C)[nH]c(C(=O)N/N=C/c2ccc(OC)c(OC)c2)c1C,13.6
5,CCOc1ccc(C2C(C(=O)c3ccc(C)o3)=C(O)C(=O)N2CCN2CCOCC2)cc1OC (stereo not drawn),12.3
6,CN(C)CCCn1c2c(c(SCC(=O)Nc3cccc4ccccc34)nc1=O)CCCC2,-11.5
7,CCC(C)NC(=O)c1ccccc1-c1nc2ccccc2[nH]1 (stereo not drawn),-1.69
8,Cc1[nH]c2ccccc2c1C(=O)C(C)OC(=O)c1ccc([N+](=O)[O-])o1 (stereo not drawn),5.81
9,Cc1nn(C(C)(C)C)c(C)c1/C=N/OC(=O)Nc1ccc(Cl)c(Cl)c1,10.1
10,Cc1onc(-c2ccccc2Cl)c1C(=O)Nc1ccc2c(c1)OCO2,7.19
11,O=C(C1=C(O)C(=O)N(CCN2CCOCC2)C1c1cccc(Br)c1)c1cc2ccccc2o1 (stereo not drawn),12.7
12,N#CC1=C(N)NC(SCc2ccc(Br)cc2)=C(C#N)C12CCCCC2,4.53
13,CCOc1ccc(N(CC(=O)N/N=C/c2cc([N+](=O)[O-])ccc2Cl)S(C)(=O)=O)cc1,-2.41
14,COc1cc(S(=O)(=O)N2CCC(c3nc4ccccc4s3)CC2)ccc1S(=O)(=O)N1CC(C)CC(C)C1 (stereo not drawn),13.6
15,O=C(Cn1nnc2c(cnn2-c2ccc(F)cc2)c1=O)c1ccccc1F,7.76
16,COc1ccc(-c2nnn(CCc3nn[nH]n3)n2)cc1OC,15.8
17,Cc1ccn(C(=O)c2ccc(NC(=O)C3CCCCC3)cc2)n1,3.48
18,O=C(CSc1nnc(-c2ccc(O)cc2)o1)Nc1ccccc1,9.47
19,CC1=NC(C)Cc2ccccc21.Cl (stereo not drawn),17.6
20,CC(NC(=O)COC(=O)CCc1nc(=O)c2ccccc2n1C)c1ccccc1 (stereo not drawn),15.5
21,CC1=C(C)CC(C(=O)NCc2ccc3c(c2)OCO3)C(C(=O)O)C1 (stereo not drawn),14.2

row,SMILES,"hERG current change (%, negative = inhibition) at 1uM [%]"
1,O=c1cc(C(F)(F)F)nc(SCc2cccnc2)[nH]1,10.8
2,CCCNC(=S)N1CCN(c2nc(C)nc3sc4c(c23)CCCC4)CC1,-3.85
3,CN(Cc1ccccc1)C(=O)c1nc[nH]c1C(=O)N(C)Cc1ccccc1,4.39
4,CN1CCC(=O)N([C@H](CSc2ccc(Br)cc2)Cc2ccccc2)CC1,-16.6
5,CCOc1ccc(N2C(=O)CC(NC3CCN(C(=O)c4ccc(F)cc4)CC3)C2=O)cc1 (stereo not drawn),13.1
6,C=CCNc1cc(C)oc(=O)c1C(=O)CCC,13.8
7,O=C(CNC(=S)N(CCCN1CCOCC1)Cc1cccs1)NCCCN1CCOCC1,16.3
8,Cc1ccc(NC(=O)CCC(=O)c2cccs2)cc1,2.02
9,Cc1cc(Oc2ccc(=O)[nH]n2)nc(Cl)n1,13.8
10,Cn1c(N)c(S(=O)(=O)N2CCN(Cc3ccccc3)CC2)c(=O)n(C)c1=O,-1.66
11,O=C(CSc1nnc(CNC(=O)c2c(F)cccc2F)o1)Nc1ccc2c(c1)OCO2,8.14
12,CCN(CC)CCNC(=O)C12CC3CC(CC(C3)C1)C2.Cl,-2.95
13,Cc1ccc(CN2CCN(C3CCOCC3)CC2CCO)cc1 (stereo not drawn),-9.32
14,O=c1c2ccccc2nnn1Cc1ccc(F)cc1,6.47
15,COc1ccccc1C(=O)NC(=O)COC(=O)/C(=C/c1ccccc1)NC(C)=O,-2.59
16,CCN(CC(=O)Nc1c(F)cccc1F)C(=O)/C=C/c1ccc2ccccc2n1,4.28
17,COc1cccc2c(=O)n(CC(=O)NC3CCCC3)ccc12,12.7
18,CC(C)(C)n1cnnc1Sc1ccc([N+](=O)[O-])cn1,6.11
19,c1ccc(-c2csc3ncn4nnnc4c23)cc1,0.973
20,COc1ccc2c(c1)c1ccccc1n2C,9.94
21,Cc1ncc(CN2CCC(CO)(CCOc3ccccc3)CC2)s1,-35.6
